Data from article PMC4336329 (PLoS ONE, 2015).
Hit rate of the full screen: of about 310,000 compounds, about 14,000 (4.5%) showed an effect of 50% or more. The effect is printed as a negative number. The list shows a part of the results.

Target: human ether-à-go-go-related gene (hERG) potassium channel (human, UniProt Q12809)
Assay: primary screen, population patch clamp on CHO cells stably expressing hERG
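Further: peak tail current of the secondary pulse compared with the same well before compound.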

human ether-à-go-go-related gene (hERG) potassium channel, sequence (Q12809 whole entry, looked up): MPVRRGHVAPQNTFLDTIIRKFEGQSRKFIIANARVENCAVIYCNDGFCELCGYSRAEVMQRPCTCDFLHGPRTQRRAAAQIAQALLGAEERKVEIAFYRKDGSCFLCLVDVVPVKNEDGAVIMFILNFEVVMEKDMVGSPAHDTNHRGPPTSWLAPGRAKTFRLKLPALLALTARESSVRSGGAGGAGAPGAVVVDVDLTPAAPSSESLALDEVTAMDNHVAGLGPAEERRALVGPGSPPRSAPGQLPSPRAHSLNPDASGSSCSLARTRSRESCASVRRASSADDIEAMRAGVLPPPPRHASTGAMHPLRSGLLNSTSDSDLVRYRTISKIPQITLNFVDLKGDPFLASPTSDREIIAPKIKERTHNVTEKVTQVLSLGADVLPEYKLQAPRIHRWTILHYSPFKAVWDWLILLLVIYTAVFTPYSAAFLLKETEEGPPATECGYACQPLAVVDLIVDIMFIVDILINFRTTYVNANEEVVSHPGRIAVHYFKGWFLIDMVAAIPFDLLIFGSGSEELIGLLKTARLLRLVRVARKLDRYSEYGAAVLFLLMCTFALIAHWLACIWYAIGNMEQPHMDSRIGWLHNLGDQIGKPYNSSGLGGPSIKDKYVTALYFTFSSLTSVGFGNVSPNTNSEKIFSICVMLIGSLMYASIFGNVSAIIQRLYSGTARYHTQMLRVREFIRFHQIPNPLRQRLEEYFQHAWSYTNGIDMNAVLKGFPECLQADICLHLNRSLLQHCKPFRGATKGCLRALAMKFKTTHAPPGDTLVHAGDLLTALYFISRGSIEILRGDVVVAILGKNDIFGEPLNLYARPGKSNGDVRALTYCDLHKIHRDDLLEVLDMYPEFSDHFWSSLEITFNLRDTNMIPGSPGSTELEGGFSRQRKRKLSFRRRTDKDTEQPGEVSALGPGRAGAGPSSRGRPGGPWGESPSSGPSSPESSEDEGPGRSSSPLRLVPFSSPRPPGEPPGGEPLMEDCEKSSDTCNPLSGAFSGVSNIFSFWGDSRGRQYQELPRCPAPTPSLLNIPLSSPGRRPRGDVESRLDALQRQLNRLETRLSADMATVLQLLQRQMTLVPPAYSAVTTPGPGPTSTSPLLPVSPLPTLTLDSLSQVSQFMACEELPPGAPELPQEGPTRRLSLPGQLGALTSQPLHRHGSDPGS

In order of rising “hERG current change (%, negative = inhibition) at 10uM” value:
1. CC1CCN(CC(O)COc2ccc(-c3ccccc3)cc2)CC1.Cl (stereo not drawn)  -81%
2. COc1ccc(CN2CCC(C(=O)c3ccc(F)cc3)CC2)cc1  -78.4%
3. Cc1ccccc1N1CCN(C2CCCN(C(=O)CCC(F)(F)F)C2)CC1 (stereo not drawn)  -47.3%
4. Cc1ccccc1N1C(=O)C(Oc2ccc(Cl)cc2)C1CNC(C)(C)C (stereo not drawn)  -39.5%
5. CC1(C)Cc2nc(-c3ccccc3)nc(SCC(=O)N3CCCC3)c2CO1  -31.6%
6. CCN(CC)c1ccc(N=Cc2c(O)n(-c3ccccc3C)c(=O)[nH]c2=O)cc1  -29.2%
7. Cc1ccc(S(=O)(=O)C2(C(=O)N3CCN(C4CCCCC4)CC3)CC2)cc1  -27.8%
8. O=C(Nc1cccc(CCc2ccccn2)c1)c1ccc(Cl)cc1  -25%
9. CCC(=O)Nc1nc(NCc2ccccc2OC)n(-c2ccccc2)n1  -23.9%
10. CC(=O)c1cccc(OC(=O)c2ccc3c(=O)n4c(nc3c2)CCC4)c1  -19.7%
11. COC(=O)CN(c1ccc(OC)cc1)S(=O)(=O)c1ccc(OC)c(OC)c1  -19.1%
12. COc1ccc(C2NC(=O)c3sc(=S)n(-c4ccccc4)c3N2)cc1 (stereo not drawn)  -19.1%
13. Nn1c(SCC(=O)Nc2cc(C(F)(F)F)ccc2Cl)nncc1=O  -18.9%
14. CCOC(=O)C1(CCOc2ccccc2)CCN(Cc2ccc3nonc3c2)CC1  -17%
15. OC(CC#CCN1CCCCC1)(c1ccccc1)c1ccccc1  -16%
16. COc1cccc(CN(C(=O)c2cccs2)C2CCS(=O)(=O)C2)c1 (stereo not drawn)  -15.7%
17. CCc1sc(C(=O)NCc2cc(C)n(C)n2)cc1Br  -14.1%
18. CCOC(=O)c1sc2nc(NC(=O)C(C)(C)C)sc2c1C  -11.7%
19. COc1ccc(CNC(=O)CCC(=O)Nc2nnc(C(C)C)s2)cc1  -7.21%
20. O=C(CO)N/N=C/c1c2ccccc2cc2ccccc12  -5.89%
21. Cn1nccc1C(=O)OCC(=O)Nc1nc(-c2ccccc2)cs1  -3.52%
22. COc1cc(CCCN2C(=S)NC[C@@H]2c2ccccc2)cc(OC)c1OC  -3.51%
23. CCOc1cc(-c2sc(Nc3ccccc3)n[n+]2C)ccc1OC.[Cl-]  -1.24%
24. Cc1ccc(Cl)cc1NC(=S)N(CCN(C)C)Cc1cccs1  -0.292%
25. Cc1n[nH]c(=O)c2c(NC(=O)COC(=O)c3cc(F)cc(F)c3)oc(C)c12  -0.246%
26. O=C(CCCCCNC(=O)N1CCn2c1nc1ccccc12)NCc1ccc(Cl)cc1  2.07%
27. Cc1ccc(C(C)NC(=S)NC2CCCCC2)c(C)c1 (stereo not drawn)  4.2%
28. O=C(COC(=O)CCCC1=NS(=O)(=O)c2ccccc2N1)Nc1ccc(Br)cc1  5.63%
29. COc1ccc(-n2c(=S)[nH]c3cc(C(=O)Nc4ccc(OC)c(OC)c4)ccc3c2=O)cc1  5.74%
30. CCCC(=O)NCCc1ccc(F)cc1  8.94%
31. CC(=O)c1ccc(NC(=O)c2cc3ccccc3o2)cc1  9.19%
32. Cc1ccccc1-n1c(Cn2c(=O)sc3ccccc32)nnc1SCC(N)=O  9.72%
33. CC(=O)O.CC(=O)Oc1ccc(-c2csc(Nc3ccc(S(N)(=O)=O)cc3)n2)cc1  9.81%
34. Cc1ccc(NC(=O)Cn2cc([N+](=O)[O-])nc2C)cc1C  9.93%
35. COc1ccc(/C=N/NC(=O)c2nnn(-c3nonc3N)c2CN(C)C2CCCCC2)cc1  10.1%
36. O=c1cc(-c2ccc(C3CCCCC3)cc2)[nH][nH]1  11.2%
37. COCCCNC(=S)Nc1cc(C)c(C)cc1C  12.1%
38. COc1ccc(NC(=O)CSc2nnc(NC(=O)C3CCC3)s2)c(OC)c1  12.6%
39. COc1cccc(OCCSc2nc3ccccc3c(=O)[nH]2)c1  12.7%
40. COc1ccc(N2CCN(C(=S)Nc3ccc(OC)cc3OC)CC2)cc1  14.2%
41. Cc1ccsc1C(=O)Nc1ccc(O)c(-c2nc3ccccc3s2)c1  14.8%
42. CSc1ccccc1NC(=O)Nc1cccc2ccccc12  16%
43. Cc1ccc(C(=O)CCC(=O)Nc2ccccc2C)c(C)c1  18.6%
44. COc1ccc(N(C(=O)c2snc(C(N)=O)c2N)C(C(=O)NC2CCCC2)c2cc(OC)ccc2OC)c(OC)c1 (stereo not drawn)  20.9%
45. C=CCn1c(-c2ccccc2)nc(=S)c2c1CC(C)(C)OC2  22.6%
